Measured values from PubChem BioAssay AID485294 (National Center for Advancing Translational Sciences (NCATS), 2010).
Several values for one entry are separate records, joined by “and”; a condition that tells them apart may be missing. Identical values can stand only once. About 150 (0.041%) of roughly 370,000 compounds were called active. The inconclusive results got no clear call from the source; some entries with a clear call stand among them for comparison. Calls follow the shape of the dose curve; as a rule, active = well fitted inhibition curve with a large enough effect; inconclusive = small, poorly fitted or top-dose-only effect; inactive = flat fitted curve, though single readings scatter. A potency beside an inconclusive call is a rough fit, not a confirmed value.

The compounds below were run against Beta-lactamase (Escherichia coli (strain K12)) (UniProt P00811) (assay: qHTS Inhibitors of AmpC Beta-Lactamase (assay with detergent)). Details: AmpC hydrolysis of nitrocefin, absorbance 480 nm, 0.01% Triton; activity change, negative = inhibition: at 114 µM (top of the series).
Summary of the method: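 20 mM phosphate pH 7.0 + 0.01% (detergent screen) or 0.0001% Triton X-100; 5.3 nM AmpC reagent; cpd preinc 15 min RT; nitrocefin (800 uM stock) to start; A480 q20 s × 4 min; Activity was normalised to no-enzyme and no-compound control wells.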
Also: nearly all actives have a fitted effect of over 25% in size.
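For activity change, negative = inhibition in this document: 0% = no-compound wells and -100% = no-enzyme wells.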
Potency is read from the fitted curve at half-maximal effect; tags tell the direction and shape of the fitted curve.

Sequence of UniProt P00811 (P00811 whole entry, looked up): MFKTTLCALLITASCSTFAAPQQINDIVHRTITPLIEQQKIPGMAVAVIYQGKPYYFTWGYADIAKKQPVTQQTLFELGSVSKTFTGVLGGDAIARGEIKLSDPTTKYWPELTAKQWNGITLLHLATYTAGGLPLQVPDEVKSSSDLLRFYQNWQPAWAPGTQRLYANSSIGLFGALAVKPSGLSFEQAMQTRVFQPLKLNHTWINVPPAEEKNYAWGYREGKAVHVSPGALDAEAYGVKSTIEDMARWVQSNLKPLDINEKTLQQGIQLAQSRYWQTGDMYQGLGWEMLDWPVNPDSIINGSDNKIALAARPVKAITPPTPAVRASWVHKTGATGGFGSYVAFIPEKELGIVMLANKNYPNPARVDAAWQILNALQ

| SMILES | Potency | activity change, negative = inhibition |
| --- | --- | --- |
| Cc1nnc(NC(=O)CSc2nnc(Cc3cccn3C)n2CCc2ccccc2)s1 | inconclusive: 100 µM [inhibitor, single point] |  |
| Cc1nc2ccc(NC(=O)c3ccc([N+](=O)[O-])cc3[N+](=O)[O-])cc2s1 | inconclusive: 63.1 µM [inhibitor, partial curve, poor fit] |  |
| C=CCNC(=O)NC(=O)COC(=O)c1cccnc1SC | inconclusive: 0.631 µM [inhibitor, full curve, poor fit] |  |
| Cc1cc(C(=O)OCC(=O)N2C(C)CCCC2C)c(C)o1 (stereo not given) | inconclusive: 1 µM [inhibitor, full curve] |  |
| COC(=O)c1ccc(/C=N/NC(=O)CC(=O)NCc2cccnc2)cc1 |  | inactive: 6.36% |
| NC(=S)NNC(=O)Nc1ccc(Cl)c(Cl)c1 |  | inactive: -9.22% |
| O=C(NC(=S)N1CCCCC1)c1cccs1 | inconclusive: 3.55 µM [inhibitor, full curve] |  |
| O=C(NCCCN1CCN(c2ccccc2F)CC1)c1sc2ncccc2c1-n1cccc1 |  | inactive: 18.8% |
| CCOC(=O)c1c(C)n(-c2ccc(C)cc2)c2ccc(O)c(CN(C)C)c12 |  | inactive: -1.73% |
| CS(=O)(=O)c1ccc2nc(NC(=O)c3cccc(NS(=O)(=O)c4ccc(F)c(F)c4)c3)sc2c1 |  | inactive: -8.78% |
| CC(Sc1nnc(-c2cccnc2)n1N)C(=O)N1CCOCC1 (stereo not given) | inconclusive: 1.41 µM [inhibitor, partial curve, poor fit] |  |
| CCn1c(SCc2nc(-c3ccccc3)no2)nnc1-c1ccco1 | inconclusive: 70.8 µM [inhibitor, single point] |  |
| COC(=O)CCCCCN1C(=O)NC(c2ccccc2)C(C(=O)OCc2ccccc2)=C1C (stereo not given) |  | inactive: -1.55% |
| Cc1ccc(OCc2cc(C(=O)N3CCCC(O)C3)no2)cn1 (stereo not given) | inconclusive: 28.2 µM [inhibitor, full curve, poor fit] |  |
| Cc1cc(NC(=O)c2ccc3[nH]c(C)c(C)c3c2)ccn1 |  | inactive: 6.94% |
| Cc1ccc(NC(=O)c2cccc(S(=O)(=O)N3CCN(c4ccc(F)cc4)CC3)c2)nc1 |  | inactive: -0.665% |
| Cc1cc([N+](=O)[O-])c(Cl)cc1NC(=O)C(C)C | inconclusive: 56.2 µM [inhibitor, partial curve, poor fit] |  |
| Cc1c(C(=O)Oc2ccc(Br)cc2)sc2ncn(Cc3ccccc3F)c(=O)c12 |  | inactive: -4.46% |
| Nc1nnc(-c2ccco2)s1 |  | inactive: -3.13% |
| CCCCc1nc2ccccc2[nH]1 |  | inactive: 7.52% |
| O=C(O)C(O)c1ccccc1 (stereo not given) | inconclusive: 63.1 µM [inhibitor, partial curve] and inconclusive: 39.8 µM [inhibitor, full curve, poor fit] |  |
| CCCC[C@H]1COCCS(=O)(=O)N1Cc1cccc(Cl)c1 | inconclusive: 3.16 µM [inhibitor, full curve, poor fit] |  |
| CC(C)(C)NC(=O)c1ccccc1-c1nc2ccccc2s1 | inconclusive: 25.1 µM [inhibitor, full curve, poor fit] |  |

| SMILES | Potency | activity change, negative = inhibition |
| --- | --- | --- |
| COc1cccc(-n2c(Cc3cc(=O)[nH]c(=O)[nH]3)nnc2SCC(=O)N2CCCC2)c1 | inconclusive: 3.98 µM [inhibitor, full curve] |  |
| COc1ccc(-c2nnc(CSc3nc4ccccc4c(=O)n3CC(C)C)o2)cc1OC | inconclusive: 0.631 µM [inhibitor, full curve, poor fit] |  |
| COc1ccc(C#Cc2ccc3c(c2)c(=O)c2ccccc2n3C)cc1 | inconclusive: 0.562 µM [inhibitor, full curve, poor fit] |  |
| CCN(CC)C1CCN(C(=O)c2ccc3nc(Cc4ccc(OC)cc4)oc3c2)C1 (stereo not given) | inconclusive: 25.1 µM [inhibitor, partial curve, poor fit] |  |
| CCNc1c([N+](=O)[O-])c(=O)oc2ccccc12 |  | inactive: -0.16% |
| O=C(c1ccc(-c2cccc(C(F)(F)F)c2)o1)N1CCOCC1 | inconclusive: 1.58 µM [inhibitor, full curve, poor fit] |  |
| COc1ccc(Cl)c(S(=O)(=O)N2CCCC2)c1 | inconclusive: 3.98 µM [inhibitor, single point] |  |
| Cc1ccc(OCC(=O)Nc2ccc(S(=O)(=O)Nc3ccccn3)cc2)c(C)c1 | inconclusive: 1 µM [inhibitor, full curve, poor fit] |  |
| COc1ccccc1CNC(=O)N1CCN(c2ccccc2C)CC1 |  | inactive: -14.7% |
| O=C(CN1C(=O)c2cccc([N+](=O)[O-])c2C1=O)NCc1ccccc1 | inconclusive: 39.8 µM [inhibitor, partial curve] |  |
| Cc1ccc(OCC(=O)Nc2ccc(NC(=O)c3ccccc3)c(C)c2)cc1 | inconclusive: 0.891 µM [inhibitor, partial curve] |  |
| CSc1c(C#N)sc(=S)n1-c1ccc(C)cc1 |  | inactive: 3.64% |
| C/C(=N\NC(=O)C(C)n1nc(C)c([N+](=O)[O-])c1C)c1ccccc1O (stereo not given) |  | inactive: 7.17% |
| Cc1ccc(NC2CCCN(C(=O)CN3C(=O)c4ccccc4C3=O)C2)cc1C (stereo not given) | inconclusive: 89.1 µM [inhibitor, single point] |  |
| Cc1ncsc1CCOC(=O)c1cccc([N+](=O)[O-])c1 | inconclusive: 39.8 µM [inhibitor, single point] |  |
| Cc1c(N=Cc2c(O)n(Cc3ccco3)c(=O)[nH]c2=O)c(=O)n(-c2ccccc2)n1C |  | inactive: -9.71% |
| S=c1[nH]c2cc3ccccc3cc2[nH]1 | inactive |  |
| CC(C)OCCCNC(=O)c1ccc(CN2CCc3ccccc3C2)cc1 | inconclusive: 0.631 µM [inhibitor, full curve, poor fit] |  |
| NC(=O)C1CCC(NC(=O)OCc2ccccc2)CC1 (stereo not given) | inconclusive: 44.7 µM [inhibitor, partial curve, poor fit] |  |
| CC1(C)C(=O)OC(c2c(F)c(F)c(F)c(F)c2F)C2(CCCCC2)C1=O (stereo not given) | inconclusive: 100 µM [inhibitor, single point] |  |
| CC1(C(=O)N(Cc2ccccc2)Cc2ccccc2)CC1(Br)Br (stereo not given) | inconclusive: 31.6 µM [inhibitor, full curve, poor fit] |  |
| Cc1c(C#N)c(N)c(C(=O)c2ccccc2)n1Cc1ccccc1 | inconclusive: 2.51 µM [inhibitor, full curve, poor fit] |  |
